Laboratory results published in US20220267412.
Changes are numbered by the printed parent chain.

Legend:
[1] = target: T1, human serpin B1 C344S variant
T1 chain: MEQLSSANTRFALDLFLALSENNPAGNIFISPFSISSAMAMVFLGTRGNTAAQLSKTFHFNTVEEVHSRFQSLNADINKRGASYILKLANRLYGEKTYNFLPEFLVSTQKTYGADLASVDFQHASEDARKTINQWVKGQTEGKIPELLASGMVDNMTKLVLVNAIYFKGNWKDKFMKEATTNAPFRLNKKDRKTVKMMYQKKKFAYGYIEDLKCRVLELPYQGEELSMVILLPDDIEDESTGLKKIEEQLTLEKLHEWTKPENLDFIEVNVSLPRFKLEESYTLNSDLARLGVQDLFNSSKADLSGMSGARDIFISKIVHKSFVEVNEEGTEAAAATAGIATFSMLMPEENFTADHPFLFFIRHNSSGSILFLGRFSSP

[2] = target: T2, rhsB1D, intermolecular disulfide-bonded dimeric form of rhsB1-cys344
T2 chain: T1 chain with S344C

[3] = target: T3, rhsB1M*, post-translationally modified (oxidized) monomeric form of rhsB1-cys344
T3 chain: T1 chain with S344C

B1: porcine pancreatic elastase (protein)
chain: VVGGTEAQRNSWPSQISLQYRSGSSWAHTCGGTLIRQNWVMTAAHCVDRELTFRVVVGEHNLNQNDGTEQYVGVQKIVVHPYWNTDDVAAGYDIALLRLAQSVTLNSYVQLGVLPRAGTILANNSPCYITGWGLTRTNGQLAQTLQQAYLPTVDYAICSSSSYWGSTVKNSMVCAGGDGVRSGCQGDSGGPLHCLVNGQYAVHGVTSFVSRLGCNVTRKPTVFTRVSAYISWINNVIASN
[1]
  cleavage by PPE (SDS-PAGE of reaction products): the C344S serpin B1 variant is rapidly cleaved and inactivated by PPE at enzyme:inhibitor ratios that would normally form SDS and heat stable complexes with wild-type (C344) serpin B1
[2]
  cleavage by PPE (SDS-PAGE): Both rhsB1D and rhsB1M* were specifically degraded to lower molecular species of approximately 38 kDa at E:I molar ratios ≥1:100 within a 30 minute time period
[3]
  cleavage by PPE (SDS-PAGE): Both rhsB1D and rhsB1M* were specifically degraded to lower molecular species of approximately 38 kDa at E:I molar ratios ≥1:100 within a 30 minute time period
